Some of the results follow. Each Rep nickase domain was tested in vitro on the same pool of single strands (1 h at 37 °C, 3 µM enzyme); the outer parts of the 90-letter strands are left off. Numbers give uncut DNA relative to the enzyme-free pool, as log2; uncut sequences lie near 0, cut ones below; no hit call is given. Reads are scaled to the total; values above 0 arise when much of the pool is cut.
Experiments:
Experiment in all cases: uncleaved DNA left, log2 of reads against the no-enzyme library (log2 ratio); higher = less cleavage (more negative = more Rep cleavage of the k-mer); sequences stand for … in CTCGTCCG…ACCGGAGA
[1] = tested on: T1, Rep nickase domain of Muscovy duck circovirus
T1 sequence (residues 1-111, tag not shown): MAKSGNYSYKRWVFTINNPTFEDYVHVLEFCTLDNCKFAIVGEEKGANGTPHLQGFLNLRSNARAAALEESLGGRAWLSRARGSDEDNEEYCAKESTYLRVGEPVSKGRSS
Procedure: (§1)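 A pool of 90-nt single-stranded DNAs with seven random bases just before the constant AC of the nick site (name = the seven bases) was cut by 3 µM recombinant His6-SUMO-tagged Rep nickase domain (300 nM DNA, 50 mM HEPES pH 8.0, 50 mM NaCl, 1 mM MnCl2, 1 h, 37 °C, three replicates). Uncut DNA was amplified and sequenced.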

[2] = tested on: T2, Rep nickase domain of banana bunchy top virus
T2 sequence (residues 1-94, tag not shown): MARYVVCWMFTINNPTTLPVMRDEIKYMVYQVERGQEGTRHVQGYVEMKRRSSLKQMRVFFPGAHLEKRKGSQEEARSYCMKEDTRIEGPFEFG
Procedure: as §1

[3] = tested on: T3, Rep nickase domain of cabbage leaf curl virus
T3 sequence (residues 1-116, tag not shown): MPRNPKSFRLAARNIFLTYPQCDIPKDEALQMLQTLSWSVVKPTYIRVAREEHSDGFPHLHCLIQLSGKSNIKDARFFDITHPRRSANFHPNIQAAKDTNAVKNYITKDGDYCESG
Procedure: as §1

[4] = tested on: T4, Rep nickase domain of chickpea chlorotic dwarf virus
T4 sequence (residues 1-124, tag not shown): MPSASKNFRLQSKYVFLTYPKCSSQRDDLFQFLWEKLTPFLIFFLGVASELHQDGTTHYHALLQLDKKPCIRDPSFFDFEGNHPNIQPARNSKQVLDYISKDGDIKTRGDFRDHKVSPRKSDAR
Procedure: as §1

[5] = tested on: T5, Rep nickase domain of faba bean necrotic yellows virus
T5 sequence (residues 1-98, tag not shown): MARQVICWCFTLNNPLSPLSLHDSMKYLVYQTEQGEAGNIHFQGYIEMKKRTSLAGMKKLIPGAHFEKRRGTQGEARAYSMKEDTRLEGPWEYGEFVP
Procedure: as §1

[6] = tested on: T6, Rep nickase domain of maize striate mosaic virus
T6 sequence (residues 1-117, tag not shown): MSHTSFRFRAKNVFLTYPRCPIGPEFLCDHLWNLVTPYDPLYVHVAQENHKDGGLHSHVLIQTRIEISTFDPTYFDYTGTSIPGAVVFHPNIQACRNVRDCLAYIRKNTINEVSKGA
Procedure: as §1

[7] = tested on: T7, Rep nickase domain of porcine circovirus 2
T7 sequence (residues 2-116, tag not shown): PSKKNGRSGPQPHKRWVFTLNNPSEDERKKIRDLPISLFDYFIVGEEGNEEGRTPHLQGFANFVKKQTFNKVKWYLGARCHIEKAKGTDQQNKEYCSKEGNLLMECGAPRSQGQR
Procedure: as §1

[8] = tested on: T8, Rep nickase domain of tomato golden mosaic virus
T8 sequence (residues 1-124, tag not shown): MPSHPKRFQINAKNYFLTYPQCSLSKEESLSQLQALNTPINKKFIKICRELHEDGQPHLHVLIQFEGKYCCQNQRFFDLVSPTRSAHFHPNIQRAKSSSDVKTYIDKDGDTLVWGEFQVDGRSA
Procedure: as §1

[9] = tested on: T9, Rep nickase domain of tomato yellow leaf curl virus
T9 sequence (residues 1-136, tag not shown): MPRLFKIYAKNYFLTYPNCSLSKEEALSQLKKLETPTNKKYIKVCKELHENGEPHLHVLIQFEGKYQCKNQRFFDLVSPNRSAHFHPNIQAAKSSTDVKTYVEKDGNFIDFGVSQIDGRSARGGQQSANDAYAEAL
Procedure: as §1

[10] = tested on: T10, Rep nickase domain of wheat dwarf virus
T10 sequence (residues 1-137, tag not shown): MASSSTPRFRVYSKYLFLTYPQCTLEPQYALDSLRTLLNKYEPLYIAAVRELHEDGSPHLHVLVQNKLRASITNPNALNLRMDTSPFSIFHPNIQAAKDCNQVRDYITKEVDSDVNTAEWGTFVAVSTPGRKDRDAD
Procedure: as §1

Sequence | uncleaved DNA left (log2) [1] | uncleaved DNA left (log2) [2] | uncleaved DNA left (log2) [3] | uncleaved DNA left (log2) [4] | uncleaved DNA left (log2) [5] | uncleaved DNA left (log2) [6] | uncleaved DNA left (log2) [7] | uncleaved DNA left (log2) [8] | uncleaved DNA left (log2) [9] | uncleaved DNA left (log2) [10]
TCGTTCG | -0.0233 | -0.204 | -0.864 | -0.643 | -0.168 | -1.18 | 0.0147 | -0.261 | -0.12 | -0.145
CCTGTTG | 0.0212 | -0.138 | -0.481 | -0.632 | -0.0715 | -1.26 | -0.00655 | 0.0661 | -0.0414 | -0.121
CCCCCAC | -0.0478 | -0.0645 | 0.167 | -0.49 | -0.0811 | -0.652 | 0.0486 | -0.209 | -0.128 | -0.116
CTATTGA | 0.00751 | -0.0456 | -0.497 | -0.644 | 0.0448 | -1.1 | 0.0575 | -0.000664 | -0.0541 | -0.0325
TCCCTGT | -0.0864 | -0.166 | 0.189 | -0.364 | -0.173 | -0.304 | -0.133 | -0.118 | 0.0348 | -0.0239
AAACTAG | 0.172 | 0.0839 | -0.59 | -0.832 | 0.0815 | -1.27 | 0.217 | 0.12 | 0.1 | 0.0274
TAACGGA | 0.0296 | -0.0302 | -0.107 | -0.128 | 0.0961 | -0.0395 | -0.0497 | 0.0638 | -0.147 | -0.0484
TCTATAG | -0.0183 | -0.0815 | -0.615 | -0.888 | 0.0479 | -1.34 | 0.168 | -0.0429 | 0.0214 | -0.161
CACAATG | 0.0863 | 0.0576 | -0.533 | -0.505 | 0.0505 | -1.02 | 0.158 | 0.0718 | -0.0666 | 0.0974
TTGTGCT | -1.4 | -0.402 | -0.82 | -1.75 | -0.479 | -1.24 | -3.27 | -0.376 | -0.109 | -0.344
TGATTAG | 0.036 | 0.13 | -0.721 | -0.362 | 0.18 | -1.09 | 0.258 | -0.0376 | 0.00266 | -0.0119
GGACAGG | 0.0602 | 0.151 | 0.942 | 1.95 | 0.208 | 2.27 | 0.277 | 0.224 | 0.175 | 0.27
TCGACTC | 0.0935 | -0.0651 | 0.00101 | 0.684 | -0.2 | 1.23 | 0.0998 | -0.156 | 0.0167 | 0.122
CTAAGAG | 0.126 | 0.158 | -0.478 | -0.53 | 0.0825 | -1.05 | 0.147 | 0.0937 | 0.129 | 0.0132
GCGGGGT | 0.0625 | 0.0971 | 0.499 | 1.01 | 0.0215 | 1.71 | 0.197 | 0.0748 | 0.00921 | 0.163
ATGCTGA | 0.0752 | -0.044 | 0.267 | 1.17 | 0.0117 | 1.04 | 0.144 | 0.00468 | -0.195 | -0.0309
AACTTGG | -0.0553 | -0.0775 | -0.422 | -0.477 | 0.00626 | -1.15 | -0.0113 | -0.0165 | 0.0913 | -0.00604
CGGCCCC | -0.00491 | 0.0663 | 0.299 | 0.507 | 0.0655 | 0.473 | -0.0861 | -0.025 | -0.0935 | 0.112
AGCCTGA | 0.258 | 0.122 | 0.197 | 0.738 | 0.031 | 1.67 | 0.265 | 0.161 | 0.0225 | 0.175
GGGCCGC | -0.0398 | 0.177 | 0.746 | 1.73 | -0.0776 | 2.05 | 0.119 | 0.0147 | 0.0289 | 0.0257
CAAGGTG | 0.00662 | 0.0215 | 0.0341 | 0.801 | 0.0152 | 0.847 | 0.128 | 0.0679 | -0.0487 | 0.0468
CAAACGT | -0.025 | -0.0178 | -0.398 | -1.23 | -0.0225 | -0.823 | 0.0288 | -0.0704 | -0.0362 | -0.174
TCATCGG | 0.0814 | 0.0328 | 0.516 | 1.46 | -0.113 | 1.97 | 0.137 | 0.129 | -0.0923 | -0.00145
AGTCTCG | 0.072 | -0.0775 | -0.777 | -0.819 | 0.0484 | -0.905 | 0.0882 | 0.0155 | 0.0045 | -0.027
GCTGGAA | -0.0477 | -0.194 | 0.176 | 0.953 | 0.0337 | 1.13 | 0.221 | 0.0405 | 0.0909 | -0.0204
TGCAGTA | 0.0163 | -0.0333 | -0.144 | -0.691 | 0.05 | -0.775 | -0.207 | -0.071 | 0.0432 | 0.0638
AGCTCGA | 0.021 | -0.0903 | -0.103 | 0.171 | -0.0259 | -0.402 | -0.154 | -0.0452 | -0.0202 | -0.00411
GGTTCGA | 0.114 | -0.0237 | 0.34 | 0.761 | -0.00683 | 0.911 | 0.0456 | 0.0473 | 0.00546 | 0.107
CTTGAGC | 0.138 | -0.049 | -0.49 | -0.721 | 0.143 | -1.04 | 0.0166 | -0.0883 | 0.0766 | 0.00398
CGACAGA | 0.0709 | 0.0531 | 0.075 | 0.701 | -0.0602 | 1.35 | 0.142 | 0.129 | -0.0251 | 0.226

From the supplement of paper PMC7826260
